{
  "source": "PubChem BioAssay (NCI)",
  "tested_on": "NCI-H322M lung",
  "test": "NCI tumour cell line growth inhibition, 48 h",
  "note": "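Results reflect a 48-hour exposure of cells in 96-well plates to compound at five concentrations. GI50 is the concentration that inhibits growth by half.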",
  "data": [
    {"smiles": "COC(=O)[C@@H](C)C[C@H](Cc1ccccc1)NC(=O)c1cccc([C@@H](C[C@H](C(C)C)N(C)C(=O)[C@@H](NC(=O)[C@H]2CCCCN2C)C2CC2)OC(C)=O)n1", "values": [
      {"measurement": "GI50", "value": 54.5, "unit": "nM"}
    ]}
  ]
}
